# The list shows a part of the results.
# B1: AAA (Anguilla anguilla), Q7SIC1 (protein)
# chain: VIPEGYTQENVAVRGKATQSAQLRGEHAANSEASNAIDGNRDSNFYHGSCTHSSGQANPWWRVDLLQVYTITSVTITNRGDCCGERISGAEINIGQHLASNGVNNPECSVIGSMATGETKTFHCPAPMIGRYVVTYLPTSESLHLCEVEVNVDKPAAA
# What was measured:
# Assay in all cases: glycan array binding signal (z-score within array); higher = stronger binding
# Details in all cases: glycan notation: IUPAC condensed, linker removed
# [1] = target: GlcNAc(b1-2)Man(a1-3)[GlcNAc(b1-4)][GlcNAc(b1-2)Man(a1-6)]Man(b1-4)GlcNAc(b1-4)[Fuc(a1-6)]GlcNAc
# Outline: (§1)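 Arrays were curated from the Consortium for Functional Glycomics database, 3228 in total, and kept only where the protein sequence was available. Binding is expressed as a within-array Z-score. This score was averaged across arrays of the same protein sequence at different concentrations or buffers and across linkers, and negative values can be read as non-binding.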
# [2] = target: GlcNAc(b1-2)[GlcNAc(b1-4)]Man(a1-3)[GlcNAc(b1-2)Man(a1-6)]Man(b1-4)GlcNAc(b1-4)GlcNAc
# Outline: as §1
# [3] = target: GlcNAc(b1-2)[GlcNAc(b1-4)]Man(a1-3)[GlcNAc(b1-4)][GlcNAc(b1-2)Man(a1-6)]Man(b1-4)GlcNAc(b1-4)GlcNAc
# Outline: as §1
# [4] = target: GlcNAc(b1-2)[GlcNAc(b1-4)]Man(a1-3)[GlcNAc(b1-4)][GlcNAc(b1-2)[GlcNAc(b1-6)]Man(a1-6)]Man(b1-4)GlcNAc(b1-4)GlcNAc
# Outline: as §1
# [5] = target: GlcNAc(b1-2)[GlcNAc(b1-4)]Man(a1-3)[GlcNAc(b1-4)][GlcNAc(b1-2)[GlcNAc(b1-6)]Man(a1-6)]Man(b1-4)GlcNAc(b1-4)[Fuc(a1-6)]GlcNAc
# Outline: as §1
# [6] = target: GlcNAc(b1-2)[GlcNAc(b1-6)]Man(a1-6)[GlcNAc(b1-2)Man(a1-3)]Man(b1-4)GlcNAc(b1-4)GlcNAc
# Outline: as §1
# [7] = target: GlcNAc(b1-2)[GlcNAc(b1-6)]Man(a1-6)[GlcNAc(b1-2)Man(a1-3)]Man(b1-4)GlcNAc(b1-4)[Fuc(a1-6)]GlcNAc
# Outline: as §1
# [8] = target: GlcNAc(b1-2)[GlcNAc(b1-6)]Man(a1-6)[GlcNAc(b1-4)][GlcNAc(b1-2)Man(a1-3)]Man(b1-4)GlcNAc(b1-4)GlcNAc
# Outline: as §1
# GlcNAc(b1-3)Fuc = target: GlcNAc(b1-3)Fuc
# Outline: as §1
# GlcNAc(b1-3)Gal = target: GlcNAc(b1-3)Gal
# Outline: as §1
# [9] = target: GlcNAc(b1-3)Gal(b1-3)GalNAc
# Outline: as §1
# GlcNAc(b1-3)Gal(b1-4)Glc = target: GlcNAc(b1-3)Gal(b1-4)Glc
# Outline: as §1
# [10] = target: GlcNAc(b1-3)Gal(b1-4)GlcNAc
# Outline: as §1
# [11] = target: GlcNAc(b1-3)Gal(b1-4)GlcNAc(b1-2)Man(a1-3)[GlcNAc(b1-3)Gal(b1-4)GlcNAc(b1-2)Man(a1-6)]Man(b1-4)GlcNAc(b1-4)GlcNAc
# Outline: as §1
# [12] = target: GlcNAc(b1-3)Gal(b1-4)GlcNAc(b1-2)Man(a1-3)[GlcNAc(b1-3)Gal(b1-4)GlcNAc(b1-2)Man(a1-6)]Man(b1-4)GlcNAc(b1-4)[Fuc(a1-6)]GlcNAc
# Outline: as §1
# [13] = target: GlcNAc(b1-3)Gal(b1-4)GlcNAc(b1-2)[GlcNAc(b1-3)Gal(b1-4)GlcNAc(b1-6)]Man(a1-6)[GlcNAc(b1-3)Gal(b1-4)GlcNAc(b1-2)Man(a1-3)]Man(b1-4)GlcNAc(b1-4)GlcNAc
# Outline: as §1
# [14] = target: GlcNAc(b1-3)Gal(b1-4)GlcNAc(b1-3)Gal(b1-4)GlcNAc
# Outline: as §1
# [15] = target: GlcNAc(b1-3)Gal(b1-4)GlcNAc(b1-3)Gal(b1-4)GlcNAc(b1-2)Man(a1-3)[GlcNAc(b1-3)Gal(b1-4)GlcNAc(b1-3)Gal(b1-4)GlcNAc(b1-2)Man(a1-6)]Man(b1-4)GlcNAc(b1-4)GlcNAc
# Outline: as §1
# [16] = target: GlcNAc(b1-3)Gal(b1-4)GlcNAc(b1-3)Gal(b1-4)GlcNAc(b1-2)Man(a1-3)[GlcNAc(b1-3)Gal(b1-4)GlcNAc(b1-3)Gal(b1-4)GlcNAc(b1-2)Man(a1-6)]Man(b1-4)GlcNAc(b1-4)[Fuc(a1-6)]GlcNAc
# Outline: as §1
# [17] = target: GlcNAc(b1-3)Gal(b1-4)GlcNAc(b1-3)Gal(b1-4)GlcNAc(b1-2)[GlcNAc(b1-3)Gal(b1-4)GlcNAc(b1-3)Gal(b1-4)GlcNAc(b1-6)]Man(a1-6)[GlcNAc(b1-3)Gal(b1-4)GlcNAc(b1-3)Gal(b1-4)GlcNAc(b1-2)Man(a1-3)]Man(b1-4)GlcNAc(b1-4)[Fuc(a1-6)]GlcNAc
# Outline: as §1
# [18] = target: GlcNAc(b1-3)Gal(b1-4)GlcNAc(b1-3)Gal(b1-4)GlcNAc(b1-3)Gal(b1-4)GlcNAc(b1-2)Man(a1-3)[GlcNAc(b1-3)Gal(b1-4)GlcNAc(b1-3)Gal(b1-4)GlcNAc(b1-3)Gal(b1-4)GlcNAc(b1-2)Man(a1-6)]Man(b1-4)GlcNAc(b1-4)GlcNAc
# Outline: as §1
# [19] = target: GlcNAc(b1-3)Gal(b1-4)GlcNAc(b1-3)Gal(b1-4)GlcNAc(b1-3)Gal(b1-4)GlcNAc(b1-2)Man(a1-3)[GlcNAc(b1-3)Gal(b1-4)GlcNAc(b1-3)Gal(b1-4)GlcNAc(b1-3)Gal(b1-4)GlcNAc(b1-2)Man(a1-6)]Man(b1-4)GlcNAc(b1-4)[Fuc(a1-6)]GlcNAc
# Outline: as §1
# [20] = target: GlcNAc(b1-3)Gal(b1-4)GlcNAc(b1-3)Gal(b1-4)GlcNAc(b1-3)Gal(b1-4)GlcNAc(b1-2)[GlcNAc(b1-3)Gal(b1-4)GlcNAc(b1-3)Gal(b1-4)GlcNAc(b1-3)Gal(b1-4)GlcNAc(b1-6)]Man(a1-6)[GlcNAc(b1-3)Gal(b1-4)GlcNAc(b1-3)Gal(b1-4)GlcNAc(b1-3)Gal(b1-4)GlcNAc(b1-2)Man(a1-3)]Man(b1-4)GlcNAc(b1-4)[Fuc(a1-6)]GlcNAc
# Outline: as §1
# [21] = target: GlcNAc(b1-3)Gal(b1-4)GlcNAc(b1-3)Gal(b1-4)GlcNAc(b1-3)Gal(b1-4)GlcNAc(b1-3)Gal(b1-4)GlcNAc(b1-2)Man(a1-3)[GlcNAc(b1-3)Gal(b1-4)GlcNAc(b1-3)Gal(b1-4)GlcNAc(b1-3)Gal(b1-4)GlcNAc(b1-3)Gal(b1-4)GlcNAc(b1-2)Man(a1-6)]Man(b1-4)GlcNAc(b1-4)GlcNAc
# Outline: as §1
# [22] = target: GlcNAc(b1-3)Gal(b1-4)GlcNAc(b1-3)Gal(b1-4)GlcNAc(b1-3)Gal(b1-4)GlcNAc(b1-3)Gal(b1-4)GlcNAc(b1-2)Man(a1-3)[GlcNAc(b1-3)Gal(b1-4)GlcNAc(b1-3)Gal(b1-4)GlcNAc(b1-3)Gal(b1-4)GlcNAc(b1-3)Gal(b1-4)GlcNAc(b1-2)Man(a1-6)]Man(b1-4)GlcNAc(b1-4)[Fuc(a1-6)]GlcNAc
# Outline: as §1
# [23] = target: GlcNAc(b1-3)Gal(b1-4)GlcNAc(b1-3)Gal(b1-4)GlcNAc(b1-3)Gal(b1-4)GlcNAc(b1-3)Gal(b1-4)GlcNAc(b1-2)[GlcNAc(b1-3)Gal(b1-4)GlcNAc(b1-3)Gal(b1-4)GlcNAc(b1-3)Gal(b1-4)GlcNAc(b1-3)Gal(b1-4)GlcNAc(b1-6)]Man(a1-6)[GlcNAc(b1-3)Gal(b1-4)GlcNAc(b1-3)Gal(b1-4)GlcNAc(b1-3)Gal(b1-4)GlcNAc(b1-3)Gal(b1-4)GlcNAc(b1-2)Man(a1-3)]Man(b1-4)GlcNAc(b1-4)[Fuc(a1-6)]GlcNAc
# Outline: as §1
# [24] = target: GlcNAc(b1-3)Gal(b1-4)GlcNAc(b1-3)Gal(b1-4)GlcNAc(b1-3)GalNAc
# Outline: as §1
# [25] = target: GlcNAc(b1-3)Gal(b1-4)GlcNAc(b1-3)GalNAc
# Outline: as §1
# [26] = target: GlcNAc(b1-3)Gal(b1-4)GlcNAc(b1-3)[GlcNAc(b1-3)Gal(b1-4)GlcNAc(b1-3)]GalNAc
# Outline: as §1
# [27] = target: GlcNAc(b1-3)Gal(b1-4)GlcNAc(b1-6)[Gal(b1-3)]GalNAc
# Outline: as §1
# [28] = target: GlcNAc(b1-3)Gal(b1-4)GlcNAc(b1-6)[GlcNAc(b1-3)Gal(b1-3)]GalNAc
# Outline: as §1
# [29] = target: GlcNAc(b1-3)Gal(b1-4)GlcNAc(b1-6)[GlcNAc(b1-3)]Gal(b1-4)GlcNAc
# Outline: as §1
# GlcNAc(b1-3)GalNAc = target: GlcNAc(b1-3)GalNAc
# Outline: as §1
# GlcNAc(b1-3)Man = target: GlcNAc(b1-3)Man
# Outline: as §1
# [30] = target: GlcNAc(b1-3)[GlcNAc(b1-4)][GlcNAc(b1-6)]GlcNAc
# Outline: as §1
# [31] = target: GlcNAc(b1-3)[GlcNAc(b1-6)]Gal(b1-4)GlcNAc
# Outline: as §1
# [32] = target: GlcNAc(b1-3)[GlcNAc(b1-6)]GalNAc
# Outline: as §1
# [33] = target: GlcNAc(b1-3)[GlcNAc(b1-6)]GlcNAc
# Outline: as §1
# [34] = target: GlcNAc(b1-4)Gal(b1-4)GlcNAc
# Outline: as §1
# GlcNAc(b1-4)GlcNAc = target: GlcNAc(b1-4)GlcNAc
# Outline: as §1
# [35] = target: GlcNAc(b1-4)GlcNAc(b1-4)GlcNAc
# Outline: as §1
# [36] = target: GlcNAc(b1-4)GlcNAc(b1-4)GlcNAc(b1-4)GlcNAc(b1-4)GlcNAc
# Outline: as §1
# [37] = target: GlcNAc(b1-4)GlcNAc(b1-4)GlcNAc(b1-4)GlcNAc(b1-4)GlcNAc(b1-4)GlcNAc
# Outline: as §1
# [38] = target: GlcNAc(b1-4)[GlcNAc(b1-6)]GalNAc
# Outline: as §1
# [39] = target: GlcNAc(b1-6)Gal(b1-4)GlcNAc
# Outline: as §1
binder,measurement,setting,value
B1,glycan array binding signal (z-score),[1],0.36
same,glycan array binding signal (z-score),[2],-0.166
same,glycan array binding signal (z-score),[3],-0.121
same,glycan array binding signal (z-score),[4],-0.282
same,glycan array binding signal (z-score),[5],-0.16
same,glycan array binding signal (z-score),[6],-0.226
same,glycan array binding signal (z-score),[7],-0.162
same,glycan array binding signal (z-score),[8],-0.254
same,glycan array binding signal (z-score),GlcNAc(b1-3)Fuc,-0.071
same,glycan array binding signal (z-score),GlcNAc(b1-3)Gal,-0.048
same,glycan array binding signal (z-score),[9],-0.195
same,glycan array binding signal (z-score),GlcNAc(b1-3)Gal(b1-4)Glc,-0.116
same,glycan array binding signal (z-score),[10],-0.251
same,glycan array binding signal (z-score),[11],-0.171
same,glycan array binding signal (z-score),[12],-0.212
same,glycan array binding signal (z-score),[13],0.12
same,glycan array binding signal (z-score),[14],-0.295
same,glycan array binding signal (z-score),[15],0.569
same,glycan array binding signal (z-score),[16],0.047
same,glycan array binding signal (z-score),[17],0.944
same,glycan array binding signal (z-score),[18],0.767
same,glycan array binding signal (z-score),[19],0.309
same,glycan array binding signal (z-score),[20],1.18
same,glycan array binding signal (z-score),[21],0.912
same,glycan array binding signal (z-score),[22],0.37
same,glycan array binding signal (z-score),[23],1.16
same,glycan array binding signal (z-score),[24],-0.231
same,glycan array binding signal (z-score),[25],-0.213
same,glycan array binding signal (z-score),[26],-0.146
same,glycan array binding signal (z-score),[27],-0.298
same,glycan array binding signal (z-score),[28],-0.107
same,glycan array binding signal (z-score),[29],0.799
same,glycan array binding signal (z-score),GlcNAc(b1-3)GalNAc,-0.105
same,glycan array binding signal (z-score),GlcNAc(b1-3)Man,-0.161
same,glycan array binding signal (z-score),[30],-0.21
same,glycan array binding signal (z-score),[31],-0.108
same,glycan array binding signal (z-score),[32],-0.145
same,glycan array binding signal (z-score),[33],1.05
same,glycan array binding signal (z-score),[34],-0.222
same,glycan array binding signal (z-score),GlcNAc(b1-4)GlcNAc,2.2
same,glycan array binding signal (z-score),[35],5.55
same,glycan array binding signal (z-score),[36],7.88
same,glycan array binding signal (z-score),[37],6.77
same,glycan array binding signal (z-score),[38],-0.16
same,glycan array binding signal (z-score),[39],1.03

# From the supplement of paper PMC8728848
